Measurements reported in publication PMC8555654 (Molecular neurobiology, 2021).
Positions count from the first letter of the chain named. Values belong to the binder of their own block, whether it stands above or below them.

Tests used:
Test in all cases: co-IP
NrCAM mutant Asp82Arg = molecular target: T1, NrCAM mutant Asp82Arg (mouse, UniProt Q810U4 30-1256, Asp^82Arg)
T1 sequence (looked up): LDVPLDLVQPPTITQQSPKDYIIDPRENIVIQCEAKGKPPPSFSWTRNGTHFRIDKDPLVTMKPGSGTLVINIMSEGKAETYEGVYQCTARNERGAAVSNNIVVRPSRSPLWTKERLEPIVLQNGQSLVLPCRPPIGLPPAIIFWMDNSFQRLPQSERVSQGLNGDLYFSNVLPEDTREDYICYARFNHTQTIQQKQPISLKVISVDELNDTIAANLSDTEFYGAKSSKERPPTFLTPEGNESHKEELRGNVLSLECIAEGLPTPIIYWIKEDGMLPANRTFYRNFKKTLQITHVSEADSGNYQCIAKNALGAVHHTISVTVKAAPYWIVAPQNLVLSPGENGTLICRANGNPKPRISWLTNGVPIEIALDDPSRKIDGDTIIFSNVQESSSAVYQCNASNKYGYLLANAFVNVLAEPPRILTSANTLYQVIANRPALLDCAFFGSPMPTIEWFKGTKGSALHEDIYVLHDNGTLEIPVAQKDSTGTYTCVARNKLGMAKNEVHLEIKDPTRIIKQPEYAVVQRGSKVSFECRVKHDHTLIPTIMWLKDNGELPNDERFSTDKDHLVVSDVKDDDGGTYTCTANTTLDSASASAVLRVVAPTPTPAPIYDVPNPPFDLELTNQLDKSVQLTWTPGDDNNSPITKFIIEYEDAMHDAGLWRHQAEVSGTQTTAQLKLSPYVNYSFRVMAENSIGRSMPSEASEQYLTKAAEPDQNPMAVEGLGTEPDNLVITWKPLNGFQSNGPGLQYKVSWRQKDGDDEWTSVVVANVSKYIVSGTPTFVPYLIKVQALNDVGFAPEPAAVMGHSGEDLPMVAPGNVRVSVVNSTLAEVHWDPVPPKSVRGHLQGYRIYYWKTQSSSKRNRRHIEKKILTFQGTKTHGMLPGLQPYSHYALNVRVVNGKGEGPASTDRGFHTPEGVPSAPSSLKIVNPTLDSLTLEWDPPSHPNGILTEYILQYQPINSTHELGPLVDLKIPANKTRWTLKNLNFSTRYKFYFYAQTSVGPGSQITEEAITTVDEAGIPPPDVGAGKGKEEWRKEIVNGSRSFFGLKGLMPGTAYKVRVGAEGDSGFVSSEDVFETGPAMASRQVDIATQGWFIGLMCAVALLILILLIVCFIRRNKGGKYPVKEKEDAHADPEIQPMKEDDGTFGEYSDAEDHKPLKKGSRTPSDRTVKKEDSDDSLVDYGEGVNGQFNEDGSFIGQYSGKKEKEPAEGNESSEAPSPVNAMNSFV

NrCAM mutant Asp84Ala = molecular target: T2, NrCAM mutant Asp84Ala (mouse, UniProt Q810U4 30-1256, Asp^84Ala)
T2 sequence (looked up): T1 sequence (looked up) with R53D, D55A

NrCAM mutant Lys85Glu = molecular target: T3, NrCAM mutant Lys85Glu (mouse, UniProt Q810U4 30-1256, Lys^85Glu)
T3 sequence (looked up): T1 sequence (looked up) with R53D, K56E

[1] = molecular target: T4, NrCAM, wild type (mouse NrCAM splice variant 1 in pCMV6) (mouse, UniProt Q810U4 30-1256)
T4 sequence (looked up): T1 sequence (looked up) with R53D

ratio of Npn2/NrCAM in the immunoprecipitate, normalized to WT Npn2/NrCAM (NrCAM mutant Asp82Arg): 0.17 relative to WT
ratio of Npn2/NrCAM in the immunoprecipitate, normalized to WT Npn2/NrCAM (NrCAM mutant Asp84Ala): 0.607 relative to WT
ratio of Npn2/NrCAM in the immunoprecipitate, normalized to WT Npn2/NrCAM (NrCAM mutant Lys85Glu): 0.181 relative to WT
B1: Neuropilin-2, wild type, with an N-terminal FLAG tag (mouse Npn2 in pcDNA3.1) (receptor)
chain: not shown

ratio of Npn2/NrCAM in the immunoprecipitate, normalized to WT Npn2/NrCAM [1]: 0.496 relative to WT
B2: Neuropilin-2 mutant Arg31Glu, with an N-terminal FLAG tag (receptor)
chain: not shown
